# According to the supplement of paper PMC11417369:
# The list shows a part of the results.
# System: PfHDP1 homeodomain (GST-tagged)
# Assay: gcPBM binding intensity (ln(normalized median fluorescence intensity)); higher = stronger DNA binding
# Summary of the method: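 The binding buffer was 1× PBS containing 1% milk, 0.2 mg/ml BSA, 0.5% salmon testes DNA and 0.03% Triton X-100. In it, GST-tagged P. falciparum DNA-binding domains expressed in E. coli were applied for 1 h to an Agilent 4 × 180k array of primer-extended double-stranded 36-bp intergenic genomic probes plus negative controls. Binding intensity, read with Alexa488 anti-GST antibody and a 488 nm scan, is the highest Masliner-normalised natural-log median intensity across replicate spots of either probe orientation.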
row,Sequence,gcPBM binding intensity (ln)
1,TTTAAATATATTCAATCACACACATTCGTTTTTTTT [CACACA_site7962],6.56
2,GAATATTAAACAAACACACACACATATATATATATA [CACACA_site3382],9.25
3,AGTAGTCTGGAGAAAAGTACACAGTATCTGGTAACC [XGTACX_site2035],6.12
4,GTATAAAAATTATATACACACAACAGAATTACATAT [CACACA_site133],6.74
5,GTTTATTGATTTATTTGTACTTATATATATATTTCA [XGTACX_site5098],6.95
6,TTATGTATCCTTATAAGAAAAAAAAAAAAATTCTCT [CACACA_negctrl_site1183],6.09
7,TAAAGATGTATTTATTCACACATCTCATATAATGAA [CACACA_site5229],6.28
8,AATAAAAATATAGGCACACATATTAAAATGAACTTA [CACACA_site830],6.33
9,TGAATTTAGATATATACACACAAAAGTAAATACAAT [CACACA_site5548],6.71
10,ATGTATATGTTTTGTTGTACAAGTATTTTATATCTT [XGTACX_site3588],6.77
11,TAAATACAGACATATACACACATATATATATATATA [CACACA_site4382],9.34
12,TATATATATATATTACGTTTTAAATATACTAATCTT [CACACA_negctrl_site32],8.81
13,TTTTTATTTTTTCAAGTGCATATTTTTGGCTTCTTA,7.35
14,TAAATTTATATATAGGTGCGCAATTTGATAATAGTT [GTGCAC_site9783],7.5
15,AAAAAAAAAAAAAATACACACATATATATATATATA [CACACA_site85],9.27
16,CTTTTTCCTTTATATTGTACATAATTAAAGATAATA [XGTACX_site7014],6.66
17,AAAAAAAAAAGACACACACACAATAGTATATAAATC [CACACA_site6579],6.59
18,TATAAATAGATATATACACACATTTTTAATGATAAA [CACACA_site7299],6.27
19,TATTGCCCTGGACACACACACATATATATATATATA [CACACA_site5389],9.42
20,TTATGTTATATAAAAAGTACAAATTTTTTTTAATTA [XGTACX_site3435],5.94
21,ATTATTATTATATATGCATGTAAAATATTAAAGTAC [TGCATGCA_site914],6.77
22,ATAATATAAACATACACACACACATCTATATTTATA [CACACA_site7381],6.97

row,Sequence,gcPBM binding intensity (ln)
1,TTTTTTATAAATCAAATGAAAAATAAACTATTCAGA [CACACA_negctrl_site1568],5.88
2,ATACATATAAAAAAGTGTACATATTAAAATAAGTAT [XGTACX_site1310],6.24
3,TCATACAAACCTATTTGTACATAAGTATAATATATA [XGTACX_site4284],6.32
4,AATGCAAATAATAAAACACACAAAAAAAAGAAAAAA [CACACA_site1184],6.34
5,ATATCCGTTCAAAGATGTACATATATATTCTATAGA [XGTACX_site5354],6.96
6,ATTTATGTTATATATACACACACAAAAGAAAAAAAA [CACACA_site8977],6.89
7,TTTTTGTATGCTTCCCGATTACATTATGTTGTAAAT [CACACA_negctrl_site227],7.01
8,TATATATATATATATACACACATATACATATTGTTT [CACACA_site3499],9.37
9,TCCTACATATAAAAATGTACCCATTGTTTTTTTTTT [XGTACX_site7205],6.09
10,TTGTGTTAACTACCATGTACTTATACATCATAGGAA [XGTACX_site6627],6.28
11,AATGTATATAGAAACATGCACACGTGGTTGTATATA [CACACA_site3278],7.97
12,ATTTCAAATTAATTTACACACTTCATACTAAAAGAC [CACACA_site3176],6.91
13,TTGATATATAATAATACACACTTACATAATTAATTA [CACACA_site4320],6.68
14,AAGTATTACAACCACACACACACCTATATATCATAG [CACACA_site7878],6.71
15,ATCTTTTACGAATACACACACATAAAGAAAAAAAAA [CACACA_site1331],6.64
16,ATTATATTCTCCTTCACACACAAAAATATTTCATCA [CACACA_site5326],6.91
17,TTACGATTAAATATAACACACAACATATTTTTAATA [CACACA_site2967],6.53
18,AAGGATATGAAAAGTAGTACAAAATTTAGAACACCC [XGTACX_site4758],7.19
19,CACAAAAATTTATACACACACATATATAATATATAT [CACACA_site152],6.89
20,TCTTAAAATCGGAAATGAAATAAAGTTTACAATATG [TGCATGCA_negctrl_site553],6.28
21,TGATTCTGTCATGGTGCACACCAGAACCATTATAAA [CACACA_site1965],9.59
22,TGTTTAATCACATGTTTGCACTTTCCTTTTGTAAAT [GTGCAC_site9893],8.65

row,Sequence,gcPBM binding intensity (ln)
1,ATATATAAATATATATGTACACACATATACATGTTG [XGTACX_site6653],6.57
2,AATTATTCTATATATTGTACATGTTTGTTTTTTTTT [XGTACX_site3130],6.61
3,CCAAAATACATTAAACGTACATGTCCTAATAAGATA [XGTACX_site21],6.78
4,TTCTTATATATATACACACACAAAATATCTACAATG [CACACA_site736],6.97
5,TTGTTTTTATAAATATTATTACAATGAAAAAAAAAA [TGCATGCA_negctrl_site185],6.35
6,TAATATATATTATTATGTACATATATTGATTCCTTG [XGTACX_site6830],6.97
7,TATTTATTAATATGTACACACATCAACCATATTAAC [CACACA_site7001],6.8
8,TTTGAGTGCACATACACACAGACATACATTTAAATA [CACACA_site3403],10.4
9,ATGTTTAATTTTTTTTTGTCCCTATAGAAGTGTCAA [CACACA_negctrl_site1103],6.49
10,AAAACAAACAGACACACACACATATATATATATATA [CACACA_site3655],9.44
11,AATGAATAAATAAACACACACACATATATAAATATG [CACACA_site6160],6.94
12,ATATAAATATGTTCTGCACACAAATAAGTGTTTGAA [CACACA_site9291],8.49
13,TTTAAAATTTTTTTTTTTTTTTTTTTTTTTTTTTAT [TGCATGCA_negctrl_site213],5.81
14,ATAACCTAATAATACACACACATGAATATATAGAAT [CACACA_site963],6.72
15,AAAAAAAAAAAAAAAAGTACGTATCAAAGCATCAAA [XGTACX_site880],6.5
16,AGGTTATAAATAAATACACACATACAAAAATATGAC [CACACA_site4773],6.44
17,AATCTGATCTTTTAAAGTACACAAAAAAAAAAAAAA [XGTACX_site115],6.56
18,GTTTAACTGTTTTATACACACAATGTATACAATAAA [CACACA_site2959],6.88
19,CATATATATATATGTACACACATTAATAAAAAAAAA [CACACA_site3230],6.49
20,AATGAACACCTAAAATGTACGTACAAATATATTTTA [XGTACX_site7067],6.85
21,ATAAATAATAAGGTTACAACAAACACACAAAGGAAT [XGTACX_negctrl_site611],7.27
22,GGTTATAACCCACATGCACACGTAAATAAATATTAT [CACACA_site5992],8.74

row,Sequence,gcPBM binding intensity (ln)
1,TGTCCAATTTATTGTGCACACCTCAAAAGTGGGTAA [CACACA_site3826],11.1
2,TAAAAAAAAAAGTATACACACTTCTTAATGTCAACA [CACACA_site4818],5.98
3,ATGATGGAATATTCTACACACAATTAATAAACAAAC [CACACA_site1045],6.98
4,ATATAATCCTTTCAAACACACAAAATATAATTAATA [CACACA_site1829],6.66
5,TTTTTTTATAAATTCACACAAAATATAATATTAAAA [CACACA_site4766],6.17
6,CTATATATTTTTCATTGTACACAAATTAAAGAAAAA [XGTACX_site8385],6.61
7,AATGTCATCATATTCATATATATTTATTTCTTTTTG [GTGCAC_negctrl_site500],6.38
8,TTGTATTGTATATGCACACATAGAACACTTTTTTTT [CACACA_site4133],8.44
9,TAAATTTTGTTTAGCACACACACATACATACATACA [CACACA_site3155],7.46
10,TTGATATACTATGACACATGCAAATAAAACATTATA [TGCATGCA_site535],6.7
11,TAATCATTTTTAAATTGTACAATTTATATAATAAGT [XGTACX_site6081],6.52
12,TATATCTGTATCATTACACACATGTATACTTATTTG [CACACA_site6134],6.89
13,TATTTTTTAAGTGAACATTTGTTATTATATTCTTAT [GTGCAC_negctrl_site172],6.42
14,GATGATACACAGGTGTTGCACTTAAATGCAGTTCTT [GTGCAC_site9627],8.13
15,ATTAAAATAGAAAAAAAAAAAAAAAAAAAAAAAAAA [CACACA_negctrl_site1117],6.36
16,TATGGGGAACTATAATGTACGTATTCCTCATATATA [XGTACX_site338],6.3
17,TTTTCAAAATGTTGTACACACAAAAAAAAAAAAAAA [CACACA_site1550],6.43
18,AAAGACTTTTTATGAGCACACACATATATTATGGAG [CACACA_site8254],6.98
19,GATATATAGGTATTTACACACAATGTGAGATCTATA [CACACA_site7575],6.37
20,TGATAATAAGCATACACACACACACTAAAAAAAAAA [CACACA_site6478],6.72
21,ATGATTATACAAAATATACACACGTGGACACAAATA [CACACA_site8304],7.17
22,AGATAAAATAAATACACACACATAAATACGTACAAA [CACACA_site4739],6.94
